# Measurements as given in the supplement of paper PMC8728848.
# This is one part of the list.
# B1: Clec2 (Mus musculus), Q9JL99 (protein)
# chain: MQDEDGYITLNIKPRKQALSSAEPASSWWRVMALVLLISSMGLVVGLVALGIMSVTQQKYLLAEKENLSATLQQLAKKFCQELIRQSEIKTKSTFEHKCSPCATKWRYHGDSCYGFFRRNLTWEESKQYCTEQNATLVKTASQSTLDYIAERITSVRWIGLSRQNSKKDWMWEDSSVLRKNGINLSGNTEENMNCAYLHNGKIHPASCKERHYLICERNAGMTRVDQLL
# Columns and labels:
# Test in all cases: glycan array binding signal (z-score within array); higher = stronger binding
# Conditions in all cases: glycan notation: IUPAC condensed, linker removed
# [1] = target: Gal3S(b1-3)[Fuc(a1-4)]GlcNAc
# How it was run: (§1)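 Arrays were curated from the Consortium for Functional Glycomics database, 3228 in total, and kept only where the protein sequence was available. Binding is expressed as a within-array Z-score. This score was averaged across arrays of the same protein sequence at different concentrations or buffers and across linkers, and negative values can be read as non-binding.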
# [2] = target: Gal3S(b1-4)Glc
# How it was run: as §1
# [3] = target: Gal3S(b1-4)Glc6S
# How it was run: as §1
# [4] = target: Gal3S(b1-4)GlcNAc
# How it was run: as §1
# [5] = target: Gal3S(b1-4)[Fuc(a1-3)]Glc6S
# How it was run: as §1
# [6] = target: Gal3S(b1-4)[Fuc(a1-3)]GlcNAc
# How it was run: as §1
# [7] = target: Gal3S(b1-4)[Fuc(a1-3)]GlcNAc6S
# How it was run: as §1
# [8] = target: Gal3S4S(b1-4)GlcNAc
# How it was run: as §1
# [9] = target: Gal3S6S(b1-4)GlcNAc
# How it was run: as §1
# [10] = target: Gal3S6S(b1-4)GlcNAc6S
# How it was run: as §1
# [11] = target: Gal4S(b1-4)GlcNAc
# How it was run: as §1
# [12] = target: Gal4S6S(b1-4)GlcNAc
# How it was run: as §1
# [13] = target: Gal6P(b1-4)GlcNAc
# How it was run: as §1
# [14] = target: Gal6S(b1-3)GlcNAc
# How it was run: as §1
# [15] = target: Gal6S(b1-3)GlcNAc6S
# How it was run: as §1
# [16] = target: Gal6S(b1-4)Glc
# How it was run: as §1
# [17] = target: Gal6S(b1-4)Glc6S
# How it was run: as §1
# [18] = target: Gal6S(b1-4)GlcNAc
# How it was run: as §1
# [19] = target: Gal6S(b1-4)GlcNAc6S
# How it was run: as §1
# [20] = target: GalNAc(a1-3)Gal
# How it was run: as §1
# [21] = target: GalNAc(a1-3)GalNAc
# How it was run: as §1
# [22] = target: GalNAc(a1-3)GalNAc(b1-3)Gal(a1-4)Gal(b1-4)Glc
# How it was run: as §1
# [23] = target: GalNAc(a1-3)GalNAc(b1-3)Gal(a1-4)Gal(b1-4)GlcNAc
# How it was run: as §1
# [24] = target: GalNAc(b1-3)Gal
# How it was run: as §1
# [25] = target: GalNAc(b1-3)Gal(a1-4)Gal(b1-4)GlcNAc
# How it was run: as §1
# [26] = target: GalNAc(b1-3)Gal(a1-4)Gal(b1-4)GlcNAc(b1-3)Gal(b1-4)Glc
# How it was run: as §1
# [27] = target: GalNAc(b1-3)Gal(a1-6)Gal(b1-4)Glc
# How it was run: as §1
# [28] = target: GalNAc(b1-3)GalNAc
# How it was run: as §1
# [29] = target: GalNAc(b1-3)GlcNAc
# How it was run: as §1
# [30] = target: GalNAc(b1-4)Gal(b1-4)Glc
# How it was run: as §1
# [31] = target: GalNAc(b1-4)GlcNAc
# How it was run: as §1
# [32] = target: GalNAc(b1-4)GlcNAc(b1-2)Man
# How it was run: as §1
# [33] = target: GalNAc(b1-4)GlcNAc(b1-2)Man(a1-3)[GalNAc(b1-4)GlcNAc(b1-2)Man(a1-6)]Man(b1-4)GlcNAc(b1-4)GlcNAc
# How it was run: as §1
# [34] = target: GalNAc(b1-4)GlcNAc(b1-3)GalNAc(b1-4)GlcNAc
# How it was run: as §1
# [35] = target: GalNAc(b1-4)GlcNAc6S
# How it was run: as §1
# [36] = target: GalNAc(b1-6)GalNAc
# How it was run: as §1
# [37] = target: GalNAc3S(b1-4)GlcNAc
# How it was run: as §1
# [38] = target: GalNAc3S(b1-4)GlcNAc3S
# How it was run: as §1
# [39] = target: GalNAc3S(b1-4)[Fuc(a1-3)]GlcNAc
# How it was run: as §1
# [40] = target: GalNAc4S6S(b1-4)GlcNAc
# How it was run: as §1
# [41] = target: GalNAc6S(b1-4)GlcNAc
# How it was run: as §1
# [42] = target: Glc(a1-4)Glc
# How it was run: as §1
# [43] = target: Glc(a1-4)Glc(a1-4)Glc(a1-4)Glc
# How it was run: as §1
# [44] = target: Glc(a1-6)Glc(a1-6)Glc
# How it was run: as §1
# [45] = target: Glc(a1-6)Glc(a1-6)Glc(a1-6)Glc
# How it was run: as §1
binder,measurement,setting,value
B1,glycan array binding signal (z-score),[1],0.009
same,glycan array binding signal (z-score),[2],1.36
same,glycan array binding signal (z-score),[3],3.71
same,glycan array binding signal (z-score),[4],0.642
same,glycan array binding signal (z-score),[5],1.03
same,glycan array binding signal (z-score),[6],-0.092
same,glycan array binding signal (z-score),[7],2.96
same,glycan array binding signal (z-score),[8],2
same,glycan array binding signal (z-score),[9],2.42
same,glycan array binding signal (z-score),[10],4.08
same,glycan array binding signal (z-score),[11],-0.404
same,glycan array binding signal (z-score),[12],1.55
same,glycan array binding signal (z-score),[13],3.62
same,glycan array binding signal (z-score),[14],0.174
same,glycan array binding signal (z-score),[15],3.2
same,glycan array binding signal (z-score),[16],0.295
same,glycan array binding signal (z-score),[17],0.896
same,glycan array binding signal (z-score),[18],0.012
same,glycan array binding signal (z-score),[19],2.13
same,glycan array binding signal (z-score),[20],-0.406
same,glycan array binding signal (z-score),[21],-0.674
same,glycan array binding signal (z-score),[22],-0.489
same,glycan array binding signal (z-score),[23],-0.199
same,glycan array binding signal (z-score),[24],-0.428
same,glycan array binding signal (z-score),[25],0.28
same,glycan array binding signal (z-score),[26],-0.625
same,glycan array binding signal (z-score),[27],-0.858
same,glycan array binding signal (z-score),[28],-0.731
same,glycan array binding signal (z-score),[29],-0.622
same,glycan array binding signal (z-score),[30],1.12
same,glycan array binding signal (z-score),[31],-0.069
same,glycan array binding signal (z-score),[32],-0.451
same,glycan array binding signal (z-score),[33],-0.82
same,glycan array binding signal (z-score),[34],-0.932
same,glycan array binding signal (z-score),[35],0.297
same,glycan array binding signal (z-score),[36],-0.499
same,glycan array binding signal (z-score),[37],-0.511
same,glycan array binding signal (z-score),[38],0.566
same,glycan array binding signal (z-score),[39],-0.065
same,glycan array binding signal (z-score),[40],0.817
same,glycan array binding signal (z-score),[41],-0.522
same,glycan array binding signal (z-score),[42],-0.166
same,glycan array binding signal (z-score),[43],0.128
same,glycan array binding signal (z-score),[44],-0.368
same,glycan array binding signal (z-score),[45],-0.198
